Assay results reported in the supplement of paper PMC10126150.
Sequences with one replicate were seen in a single cluster, so their values are uncertain.

Test system: ATP
Assay: switch fluorescence ratio, 500 uM ATP over buffer (Cy3 cluster intensity, sum of 5 cycles each) (fold (ratio)); higher = stronger signal-on switching upon ATP binding; sequences stand for … in TCGTCGGCAGCGTCAGATGTGTATAAGAGACAGTTTTTTTTTTTTTTTTTTTTTTTTT…TC
Conditions: aptamer strand: ATP DNA aptamer (quencher-CACCTGGGGGAGTATTGCGGAGGAAGG + anchor), 100 nM annealed; ATP concentration: 500 uM; one replicate
Summary of the method: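 Five buffer/ATP imaging cycles were run on Cy3-labelled switching-strand clusters on a modified Illumina MiSeq flow-cell, with NaOH stripping and re-annealing between cycles. In each cycle, clusters annealed to 100 nM quencher-labelled ATP aptamer were imaged in selection buffer, then after 15 min with 500 uM ATP at 22 °C. Per cluster, the fluorescence ratio is summed target-cycle over summed buffer-cycle Cy3 intensity, averaged per switch-domain sequence. Only clusters within 100-1000 RFU were kept.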
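Note: ATP exposure 15 min at 22 °C before imaging.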

Sequence | switch fluorescence ratio
ATGGCTCTGG | 1.01
ATGGCTGGTT | 0.963
ATGGCTTA | 0.989
ATGGCTTCCA | 1.05
ATGGCTTCGA | 1.01
ATGGCTTGTT | 0.966
ATGGGAAGTA | 0.988
ATGGGCATTG | 0.972
ATGGGCCTGC | 1.06
ATGGGCGTGT | 1.03
ATGGGCTAAG | 1.04
ATGGGGAGGA | 0.999
ATGGGGCAGA | 1.02
ATGGGTAAAC | 1.05
ATGGGTCGTG | 1.02
ATGGGTGCCG | 1.03
ATGGTACGTC | 1.01
ATGGTAGGAC | 0.989
ATGGTCAACA | 1.03
ATGGTCACTC | 1.05
ATGGTCCTGA | 0.99
ATGGTCTAA | 0.998
ATGGTGAA | 0.98
ATGGTGGCAA | 1.06
ATGGTGGGCC | 1.03
ATGGTGTCCC | 0.979

Sequence | switch fluorescence ratio
ATGGTTACAG | 1
ATGGTTCTCA | 0.976
ATGGTTTGCG | 1.02
ATGTAAAAAT | 0.986
ATGTAAGGAT | 1.07
ATGTAAGGCT | 0.962
ATGTAATTGC | 1.04
ATGTACACGC | 1.12
ATGTACGTGT | 1.04
ATGTAGACCG | 1.05
ATGTAGATGG | 0.996
ATGTAGTG | 0.973
ATGTATACGT | 0.971
ATGTATGAAT | 0.98
ATGTATTTTA | 1.01
ATGTCAGTAG | 1.02
ATGTCAGTTG | 1.02
ATGTCCTAG | 1
ATGTCGACAA | 1.01
ATGTCGTGAA | 0.995
ATGTCTAACA | 0.992
ATGTCTGAG | 0.96
ATGTCTGAGG | 0.987
ATGTGATGAT | 0.965
ATGTGATTTC | 0.973
ATGTGCAGTC | 1.03

Sequence | switch fluorescence ratio
ATGTGCGCGA | 1.09
ATGTGGAATC | 1.03
ATGTGGGATC | 1.02
ATGTGGTGTG | 1
ATGTGTAT | 1
ATGTTACGTG | 0.99
ATGTTCCCTT | 0.999
ATGTTCTGTA | 1
ATGTTGAATC | 1.02
ATGTTGATGG | 0.999
ATGTTGGGT | 0.951
ATGTTTCTTA | 0.96
ATGTTTGTG | 0.963
ATGTTTGTT | 1.01
ATGTTTTACT | 1.01
ATGTTTTCCC | 1
ATGTTTTGTC | 1.09
ATTAAAAACG | 1.04
ATTAAACCAT | 1.02
ATTAAACCCA | 0.984
ATTAATTTAA | 0.984
ATTAATTTTT | 0.959
ATTACAGTGC | 1.23
ATTACCTGCT | 1.01
ATTACCTTTC | 2.23
ATTACGCACA | 1.81

Sequence | switch fluorescence ratio
ATTACGGGGC | 1.03
ATTACGTCCG | 1.13
ATTACTGATG | 1.01
ATTAGAACGT | 1.03
ATTAGAAGTA | 0.971
ATTAGACCAA | 1.01
ATTAGACGCA | 1.09
ATTAGAGACT | 1.02
ATTAGCCCGA | 1.02
ATTAGCCTAC | 1.1
ATTAGGACCT | 1.3
ATTAGGGTCG | 1.11
ATTAGTAATA | 1.02
ATTAGTCTGG | 1.02
ATTATAATAT | 1
ATTATAGAGT | 1.03
ATTATAGGTG | 1.4
ATTATCTCTC | 1.04
ATTATTAGAG | 1.01
ATTATTGTA | 1.03
ATTATTGTTT | 1.01
ATTATTTTAG | 0.954
ATTATTTTCT | 1.05
ATTCAAATGC | 0.989
ATTCAACAAA | 0.976
ATTCAATCCG | 1.09

Sequence | switch fluorescence ratio
ATTCAATTAT | 1.03
ATTCAGGTTA | 1.04
ATTCATCTGT | 1.02
ATTCCAGTTT | 0.977
ATTCCCTAGA | 0.945
ATTCCCTTTT | 1.06
ATTCCGGGCG | 1.07
ATTCCGGTA | 1.25
ATTCCTATTA | 1.02
ATTCCTGGCA | 1.15
ATTCGCCGCC | 0.947
ATTCGGCTGG | 0.994
ATTCGGGAAA | 1.02
ATTCGGGCTC | 0.994
ATTCGGTTTA | 1.01
ATTCTATTTA | 0.99
ATTCTCACAG | 1.02
ATTCTCATAT | 0.991
ATTCTCCTTT | 0.951
ATTCTGGAGA | 1.02
ATTCTGGCTG | 1.01
ATTCTTGGGC | 1.06
ATTCTTTGTA | 0.986
ATTGAAAGGT | 0.97
ATTGAAAGTT | 1.02
ATTGAGTAAG | 0.984

Sequence | switch fluorescence ratio
ATTGATAACA | 0.955
ATTGATAATT | 0.981
ATTGATACCG | 1.01
ATTGATGTAG | 1
ATTGATTCAG | 1.01
ATTGATTGGG | 0.996
ATTGCAACGC | 0.961
ATTGCACAGC | 1.03
ATTGCACCCT | 1.04
ATTGCGAACC | 1.05
ATTGCGTGGA | 1.02
ATTGCTCTTG | 0.993
ATTGCTGAGT | 0.966
ATTGGAAAAT | 0.997
ATTGGAATGG | 1.03
ATTGGATTGT | 0.983
ATTGGCCTTT | 1.02
ATTGGCGCCT | 1.05
ATTGGCTCAT | 1
ATTGGGACAA | 1.03
ATTGGTCGGT | 0.996
ATTGGTGATA | 0.98
ATTGGTTATA | 0.946
